The values below come from the supplement of paper PMC4604168 (melanoma cell lines).

Some of the results follow. Many values rest on one well or one pass, so single values are uncertain.
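Also: cells treated in 1,536-well plates, then fixed and DAPI-stained, with nuclei counted from automated high-throughput microscope images.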

The test concerns A2058. Description: cell count relative to DMSO control; melanoma cells; higher = more viable cells. The following applies: library dose: standard library concentration; 72 h.
With `O=C(Nc1cc(C(F)(F)F)cc(C(F)(F)F)c1)c1cc(Cl)ccc1O` + C[C@@H](Oc1cc(-c2cnn(C3CCNCC3)c2)cnc1N)c1c(Cl)ccc(F)c1Cl [Crizotinib] (first compound 0.08 µM, partner dose 1 µM), the cell count worked out at 107%. The value for `O=C(O)c1ccc2c(c1)nc(Nc1cccc(Cl)c1)c1ccncc12` + Cn1cc(/C=C2\C(=O)Nc3cccnc32)c2ccccc21 [GW441756] (first compound 2 µM, partner dose 2 µM) was 104%; that for `O=C(Nc1cc(C(F)(F)F)cc(C(F)(F)F)c1)c1cc(Cl)ccc1O` + CCCCCCCCCCCCCCCCCCOP(=O)([O-])OC1CC[N+](C)(C)CC1 [Perifosine] (first compound 0.08 µM, partner dose 2 µM) was 88.9%; that for `O=C(Nc1cc(C(F)(F)F)cc(C(F)(F)F)c1)c1cc(Cl)ccc1O` + Cn1nnc2c(C(N)=O)ncn2c1=O [temozolomide] (first compound 0.08 µM, partner dose 10 µM) was 41.9%. Consider `O=C(Nc1cc(C(F)(F)F)cc(C(F)(F)F)c1)c1cc(Cl)ccc1O` + CN(NC(=O)CC(=O)NN(C)C(=S)c1ccccc1)C(=S)c1ccccc1 [STA4783] (first compound 0.08 µM, partner dose 0.03 µM), for which the cell count amounted to 26.1%. `O=C(O)[C@@H]1[O][Sb](=[O])([O][Sb]2(=[O])[O][C@H]([C@H](O)CO)[C@H](O)[C@H](C(=O)O)[O]2)[O][C@H]([C@H](O)CO)[C@@H]1O` (stereo not given in full) [stibogluconate] + CCCS(=O)(=O)Nc1ccc(F)c(C(=O)c2c[nH]c3ncc(Cl)cc23)c1F [PLX4720] (first compound 10 µM, partner dose 0.4 µM) came in with a cell count of 89.5%. The value for `Cn1nnc2c(C(N)=O)ncn2c1=O` [temozolomide] + CN(NC(=O)CC(=O)NN(C)C(=S)c1ccccc1)C(=S)c1ccccc1 [STA4783] (first compound 10 µM, partner dose 0.03 µM) was 13.9%; that for `Cn1nnc2c(C(N)=O)ncn2c1=O` [temozolomide] + CO[C@@H]1[C@H](N(C)C(=O)c2ccccc2)C[C@H]2O[C@]1(C)n1c3ccccc3c3c4c(c5c6ccccc6n2c5c31)C(=O)NC4 [Midostaurin] (first compound 10 µM, partner dose 0.4 µM) was 39.1%; that for `O=C(O)c1ccc2c(c1)nc(Nc1cccc(Cl)c1)c1ccncc12` + CN(C)S(=O)(=O)c1ccc2c(c1)/C(=C/c1cc3c([nH]1)CCCC3)C(=O)N2 [SU6656] (first compound 2 µM, partner dose 2 µM) was 64.1%.

With `O=C(O)c1ccc2c(c1)nc(Nc1cccc(Cl)c1)c1ccncc12` + C=CCNC1=C2C[C@@H](C)C[C@H](OC)[C@H](O)[C@@H](C)/C=C(\C)[C@H](OC(N)=O)[C@@H](OC)/C=C\C=C(/C)C(=O)NC(=CC1=O)C2=O [Tanespimycin] (first compound 2 µM, partner dose 0.01 µM), the cell count amounted to 72%. The value for `O=C(Nc1cc(C(F)(F)F)cc(C(F)(F)F)c1)c1cc(Cl)ccc1O` + CNC(=O)c1cc(Oc2ccc(NC(=O)Nc3ccc(Cl)c(C(F)(F)F)c3)cc2)ccn1 [sorafenib] (first compound 0.08 µM, partner dose 2 µM) was 90.2%. The value for `O=C(Nc1cc(C(F)(F)F)cc(C(F)(F)F)c1)c1cc(Cl)ccc1O` + COCC[n+]1c2c(n(Cc3cnccn3)c1C)C(=O)c1ccccc1C2=O [YM155] (first compound 0.08 µM, partner dose 0.002 µM) was 23.8%; that for `O=C(Nc1cc(C(F)(F)F)cc(C(F)(F)F)c1)c1cc(Cl)ccc1O` + O=C(O)c1ccc(-c2c[nH]c3ncc(-c4ccccc4)cc23)cc1C1CCCC1 [GSK650394] (first compound 0.08 µM, partner dose 0.8 µM) was 92%; that for `O=C(Nc1cc(C(F)(F)F)cc(C(F)(F)F)c1)c1cc(Cl)ccc1O` + OCc1c[nH]c2ccccc12 [Indole-3-carbinol] (first compound 0.08 µM, partner dose 4 µM) was 117%.

`O=C(Nc1cc(C(F)(F)F)cc(C(F)(F)F)c1)c1cc(Cl)ccc1O` + Cc1ccc(Nc2nccc(N(C)c3ccc4c(C)n(C)nc4c3)n2)cc1S(N)(=O)=O [Pazopanib] (first compound 0.08 µM, partner dose 2 µM): the cell count came to 114%.
